Measured values as given in the supplement of paper PMC10338343.
± gives the standard deviation. This is a selection; strong and weak results do not stand in their true shares.

test system: MIWI (PIWIL1) piRISC loaded with L1MC piRNA (30 nt); test: pre-steady-state target cleavage rate (min^-1); MIWI and MILI are mouse PIWI proteins and EfPiwi is from a freshwater sponge; tags in brackets are library labels; higher = faster piRNA-guided slicing of the target; conditions: guide: L1MC piRNA 5'p-UAACUAAAUACUAUGCAAGCUGUAGGUCCU; auxiliary factor: 500 nM mouse GTSF1
Method in brief: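 The pre-steady-state cleavage rate was derived from a burst-and-steady-state fit of Cleave-'n-Seq data. For these assays, 1 nM active affinity-purified piRISC loaded with a single synthetic guide was mixed with […] a transcribed, DNA-blocked target RNA library in HEPES–potassium acetate buffer at 33 °C, with or without 500 nM GTSF1 partner protein, for 0–8 or 0–960 min. Sequencing counts of uncleaved targets were normalised to depth and to weakly complementary targets, and k3 was capped at 0.0001 min^-1 after three trials were pooled.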
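Further: 1 nM active piRISC with 0.1 nM target library at 33 °C single turnover.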

Sequence | pre-steady-state target cleavage rate
UCCUGGAAGAGCUUCCAUAGUAUUUAGUUA | 0.255 ± 0.058
UCCUCCUACAGCUUCCAUAGUAUUUAGAAA | 0.0194 ± 0.0093
UCGACCUACAGCUACGAUAGUAUUUAGUUA | 0.135 ± 0.021
UCCUCCUACAGCUUGCAUAGUAUUAUCUAA | 0.369 ± 0.05
UCCUGCUACUCCUUGCAUAGUAUUUAGAAA | 0.0975 ± 0.018
UCCUGGAUGUGCUAGCAUAGUAUUAAGUUA | 0.0186 ± 0.0048
UCCACCUACAGCUUGCAUAGUAUUUUCUAA | 0.361 ± 0.048
UCCUGGAUGAGCUUGGAUUGUAUUUAGUUA | 0.00776 ± 0.0043
UCCUGGUACAGCUUGCAUAGUAUUUGUUA | 0.182 ± 0.035
UCCACCUACAGCUUCCAUAGAAUUUAGUUA | 0.0393 ± 0.015
UCCUGGUACAGCUACGAUAGUAUUUAGUAA | 0.0155 ± 0.0064
UCCACCUACAGGAAGCAUAGUAUUUAGUAA | 0.474 ± 0.047
UCCUGGAUGAGCUUGCUUAGUAUUUACAAA | 0.019 ± 0.0064
AGGACCUACAGCUUCCAUAGUAAUUAGUUA | 0.117 ± 0.036
UCCUCCUACACGUUGCAUAGUAUUUACAAA | 0.173 ± 0.028
UCCUGCUACAGGUUGCAUAGUAUUUACAAA | 0.117 ± 0.028
UCCUCCUACAGCUUGCAAUGUAUUUAGUAA | 0.284 ± 0.024
UCCUGGAUGUCGUUGCAUUGUAUUUAGUAA | < 0.0001

Sequence | pre-steady-state target cleavage rate
UCCUGGAUGUCGAACGUAUCAUAUUAGUUU [g2:g7:cont:t1U] | < 0.0001
UCCUGGUACAGCUUGCAUAGUAAAAACAAA | 0.0337 ± 0.014
UCGACCUACAGCUUGCUAUGUAUUUACAAA | 0.00681 ± 0.0034
UCCUGGAACAGCUUCCAUAGUAUUUAGUAA | 0.112 ± 0.028
UCCACCUACAGCUUGCAUAGUUUUUACAAA | 0.193 ± 0.032
UCCUGGAUGUGGUUGCAUAGUAUAUAGUUA | 0.00676 ± 0.0031
UCCACCUACAGCUUGCAUAGUAUAUAGAUA | 0.428 ± 0.087
UGGUGGUACAGCUUGCAUAGUAUUUUCAAA | 0.145 ± 0.023
UCCUGGAUGUCCUUGCAUAGUAUUAACUUA | 0.00404 ± 0.004
UCCUCCUACAGCUUGCAUAGUUAUUAGAAA | 0.0862 ± 0.022
UCCUGGAACAGCUUCCAUAGUAUUAAGUUA | 0.0095 ± 0.0047
UCCUGGAUGUCGUUGCAUAGUAUUUAUUUA | 0.00442 ± 0.0038
UCCUGGAUGUCGUUGCAUAGUACUUAGUUA | 0.00459 ± 0.0027
UCCACCUAGAGCUUCCAUAGUAUUUAGUUA | 0.0648 ± 0.021
UGCACCUACAGCUUGCAUAGUAUUUACAAA | 0.345 ± 0.05
UCCUGGAUGAGGAUGCAUAGUAUUUAGUAA | 0.0043 ± 0.0037
UCCUGCUACAGCUUGCAUAGUAUUAGUUA | 0.103 ± 0.018
